# Measurements published in the supplement of paper PMC3334620.
# In all, about 33,000 sequences were measured (“E-score (-0.5 to 0.5)”: median about -0.016, highest 2% from about 0.32 on). The list shows a part of the results.
# Biological target: T1, Stp1 (UniProt B3LFK1)
# T1 sequence: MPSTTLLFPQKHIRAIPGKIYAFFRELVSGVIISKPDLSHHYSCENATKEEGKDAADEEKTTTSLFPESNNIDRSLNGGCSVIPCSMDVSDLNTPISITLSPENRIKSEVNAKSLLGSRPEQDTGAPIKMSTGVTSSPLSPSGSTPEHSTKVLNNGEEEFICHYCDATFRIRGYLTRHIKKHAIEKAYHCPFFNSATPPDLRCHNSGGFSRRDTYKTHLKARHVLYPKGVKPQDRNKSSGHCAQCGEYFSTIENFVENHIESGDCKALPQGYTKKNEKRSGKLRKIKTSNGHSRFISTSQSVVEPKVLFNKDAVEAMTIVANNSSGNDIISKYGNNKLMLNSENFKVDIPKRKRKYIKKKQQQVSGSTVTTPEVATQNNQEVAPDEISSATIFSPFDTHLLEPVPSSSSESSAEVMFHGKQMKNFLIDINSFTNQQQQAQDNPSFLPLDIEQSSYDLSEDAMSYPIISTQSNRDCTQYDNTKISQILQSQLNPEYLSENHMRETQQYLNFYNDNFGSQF
# Experiment: PBM E-score (8-mer binding enrichment) (E-score (-0.5 to 0.5)); higher = stronger / more preferred TF binding; most listed sequences are background and not binding sites
# Settings: protein concentration: 200 nM; construct: GST-full length
# Procedure, shortened: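 Full-length yeast transcription factors or their DNA-binding domains, GST-tagged and expressed with PURExpress, were applied at about 100-200 nM to universal all-10-mer Agilent arrays. These arrays had been made double-stranded by primer extension on fresh or once-stripped slides. Detection used fluorescent anti-GST, normalisation used masliner, and E-scores for ungapped eight-base words pooled with reverse complements came from the Universal PBM Analysis Suite.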
row,Sequence,PBM E-score
1,CCTTTCAC,0.0917
2,ATTGGCCG,0.0762
3,GAGTTCTA,-0.163
4,ATGATTCG,0.0526
5,CTACCTTA,-0.0359
6,TACAGGAA,0.098
7,GTACGTCA,-0.0934
8,AGCGTGAT,-0.107
9,GCATATTA,0.114
10,GCGTTTCC,0.0723
11,AGTCGTAG,-0.161
12,CAGAGGAG,-0.261
13,CAACGCTC,-0.164
14,CCTTGGCC,-0.224
15,AGGCGAAG,0.0567
16,CCGCCCAA,-0.21
17,GCGTTCCA,-0.0331
18,ATTTGCAG,0.0524
19,CAGACGCC,0.114
20,CATAAAAA,0.245
21,CCTAAATC,0.0381
22,GGATTCAA,0.03
23,CAGCATAA,-0.0365
24,AAACATCG,-0.0386
25,AATTCTAA,0.0821

row,Sequence,PBM E-score
1,CTTGTTGA,0.0222
2,ACATTGCT,0.0731
3,CGGTCCTA,-0.195
4,TGGGGAAA,-0.0661
5,ATAGGTTA,0.0587
6,GAATACTA,0.162
7,GACGTTCC,-0.166
8,AGTAGACT,-0.156
9,AACACCTT,0.0156
10,TAGCCACA,0.0256
11,TCTTCCAA,-0.132
12,GACGAGGC,0.312
13,ACATTCTC,0.115
14,ACCCAGAC,-0.156
15,CCTGTGAG,0.00192
16,GAACCGGC,-0.0191
17,CCTTATCA,0.111
18,ACACCGCG,0.0308
19,CACAGATG,-0.0326
20,GGTACACA,-0.0198
21,CTAGGTTC,-0.217
22,CGTGCGGA,0.3
23,AATCCGTG,0.219
24,CAGGAGAA,-0.00625
25,CGGCGGCC,0.214

row,Sequence,PBM E-score
1,TACTAACA,0.0927
2,CATTGTGC,0.148
3,CAGGGCAG,-0.114
4,AGTATTCG,0.0476
5,CTTATTAA,0.167
6,CAAAGTTC,-0.154
7,AATCGGCT,0.228
8,GCCCATCC,-0.0259
9,ACTCAATC,-0.0413
10,TAGTTAGA,0.0365
11,AGTTGCAC,-0.0978
12,ATGTTAGC,-0.015
13,AGGTCCCC,-0.13
14,AGTCGTGC,-0.085
15,CAGGTGCG,-0.0411
16,ACTGGCTC,-0.267
17,AATCAACG,0.107
18,CCATGAAC,-0.0517
19,AGAACGGC,0.387
20,TATGGACA,0.0788
21,ACGTTCGC,-0.134
22,CACTTCGA,0.151
23,CTACAGGC,-0.136
24,ATAGCGTC,-0.14
25,GCCACGCC,0.267

row,Sequence,PBM E-score
1,GTCGAAAC,-0.0355
2,ATGAACGC,0.116
3,GGTTGTAC,-0.0855
4,CAAAAATA,0.251
5,CCACATCC,-0.0172
6,CAGACTGG,-0.183
7,CTATCCGA,-0.0258
8,GCCTAGAA,-0.112
9,TCCTATAA,-0.00959
10,CAATAATG,0.0123
11,GAAGACAA,0.171
12,TGAAGAAA,0.168
13,GATTCAGC,-0.0357
14,GCGAGGGA,-0.178
15,ACATTTCC,0.0308
16,CCAAATCC,-0.187
17,ACATGTTG,0.118
18,CGAGCTCC,-0.0738
19,GCATGAGA,0.151
20,ACATTGAC,-0.03
21,CCAACTCA,-0.0311
22,GTTCCTAA,0.0398
23,ACTACTGC,-0.226
24,CCTCACAC,-0.142
25,CAAAGGTA,-0.0205

row,Sequence,PBM E-score
1,TGTTCCAA,0.0126
2,GGCACAAC,0.255
3,ACTTTGGC,-0.0956
4,ACTATCGA,-0.16
5,ATAAAACG,0.223
6,GCGTAAAC,0.261
7,GAACCGTA,0.0246
8,CCGCAGCG,0.0818
9,CTCGCTGA,-0.0828
10,CAAACGGG,0.175
11,AGGGGTGA,-0.353
12,AATGTCCC,-0.227
13,AGACCGGC,-0.0186
14,AAGCTGGC,-0.111
15,CAGGGAAA,-0.0756
16,GCATTTCA,0.0927
17,AATCCGAA,-0.0725
18,ATCCGTGG,-0.00618
19,GATATGGA,0.168
20,AGGTTCGG,-0.184
21,ATACATTA,0.133
22,AGGCGACA,0.197
23,AGAACCGA,-0.0518
24,GCGACCAC,0.0191
25,AGTATACC,-0.0617

row,Sequence,PBM E-score
1,GACTAGTC,-0.32
2,CTGCCCTC,-0.245
3,CAGAACCC,-0.0622
4,GTACCCAA,-0.0615
5,CACATCTA,0.198
6,CCCAGTGC,-0.0486
7,GATCGAAC,0.0147
8,GCGGTTAC,0.0829
9,CAAGTTTA,0.046
10,ACGAATTG,0.0345
11,AAGCTCTG,-0.238
12,GTTTAGTA,0.0839
13,CTAAGCAA,-0.0266
14,AGCTCTCA,-0.168
15,CGAACGAA,0.0262
16,GAGCTTCA,-0.0352
17,AGTTTCTG,0.128
18,GTTTTGCA,0.0738
19,AATCTCTC,0.0375
20,ACGTACCA,0.0308
21,CGGATTCA,-0.132
22,GCATCGGA,0.114
23,GGCCTTGA,-0.221
24,TCTTTCAA,-0.145
25,CTTTGACC,-0.0226

row,Sequence,PBM E-score
1,AACAGCAC,0.205
2,AATCCGAG,0.0181
3,AGGAATGC,0.015
4,GCTGAGGA,-0.24
5,ACGGTTAG,-0.349
6,TAACAGCA,0.174
7,ATACATAC,-0.0362
8,ACCCTAGC,-0.288
9,ATAGCAGC,-0.187
10,AAATAAGT,0.107
11,AGTCTTTG,-0.011
12,GTAGTGGA,0.0346
13,CCCTCCTC,-0.364
14,ACCACTCG,0.17
15,ATTTGCCC,0.109
16,ACTGGTAC,-0.0761
17,CTCATTTC,0.0453
18,ATATGTGC,0.193
19,CGTGAACA,0.121
20,AATTAGGC,0.146
21,ATACCGAG,-0.0782
22,CGTCATGA,-0.0466
